Measured values from paper PMC4336329 (PLoS ONE, 2015).
The campaign covered roughly 310,000 compounds. About 14,000 (4.5%) showed an effect of 50% or more. The effect is printed as a negative number. This is one part of the list.

biological target: human ether-à-go-go-related gene (hERG) potassium channel (human, UniProt Q12809); experiment: primary screen, population patch clamp on CHO cells stably expressing hERG
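Note: peak tail current of the secondary pulse compared with the same well before compound.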

Sequence of human ether-à-go-go-related gene (hERG) potassium channel (Q12809 whole entry, looked up): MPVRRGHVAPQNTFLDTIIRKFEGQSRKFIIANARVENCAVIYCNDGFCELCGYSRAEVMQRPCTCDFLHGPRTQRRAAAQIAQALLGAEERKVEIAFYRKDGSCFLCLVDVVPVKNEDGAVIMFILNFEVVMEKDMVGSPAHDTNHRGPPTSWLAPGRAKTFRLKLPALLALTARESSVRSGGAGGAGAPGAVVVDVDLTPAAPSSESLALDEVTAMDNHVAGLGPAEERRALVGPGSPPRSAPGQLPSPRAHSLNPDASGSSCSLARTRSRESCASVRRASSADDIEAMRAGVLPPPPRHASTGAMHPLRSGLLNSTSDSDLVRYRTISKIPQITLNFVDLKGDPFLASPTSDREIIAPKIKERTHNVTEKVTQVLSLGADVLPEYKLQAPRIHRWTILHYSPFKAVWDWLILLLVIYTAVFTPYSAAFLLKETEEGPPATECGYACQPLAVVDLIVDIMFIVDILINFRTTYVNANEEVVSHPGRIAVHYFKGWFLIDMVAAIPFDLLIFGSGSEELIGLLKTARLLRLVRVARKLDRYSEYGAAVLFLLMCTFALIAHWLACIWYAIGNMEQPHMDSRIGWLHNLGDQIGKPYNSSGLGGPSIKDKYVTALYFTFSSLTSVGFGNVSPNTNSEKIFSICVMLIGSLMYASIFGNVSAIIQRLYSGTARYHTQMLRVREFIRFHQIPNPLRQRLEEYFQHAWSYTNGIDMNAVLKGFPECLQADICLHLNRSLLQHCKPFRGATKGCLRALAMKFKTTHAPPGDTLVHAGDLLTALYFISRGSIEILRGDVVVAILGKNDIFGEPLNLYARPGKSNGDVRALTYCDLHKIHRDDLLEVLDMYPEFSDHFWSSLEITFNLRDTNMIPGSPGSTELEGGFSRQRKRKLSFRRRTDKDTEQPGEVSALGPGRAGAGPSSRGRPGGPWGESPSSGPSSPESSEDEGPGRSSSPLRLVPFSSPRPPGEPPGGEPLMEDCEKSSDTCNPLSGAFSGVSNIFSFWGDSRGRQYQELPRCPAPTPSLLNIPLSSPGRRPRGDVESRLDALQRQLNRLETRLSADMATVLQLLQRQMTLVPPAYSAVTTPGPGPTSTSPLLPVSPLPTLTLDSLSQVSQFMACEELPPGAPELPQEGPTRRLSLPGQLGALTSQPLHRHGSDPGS

Compound | hERG current change (%, negative = inhibition) at 10uM [%]
COC(=O)c1[nH]c2ccccc2c1NC(=O)Oc1ccccc1 | 12
NNC(=O)c1nc[nH]c1C(=O)Nc1ccccn1 | -11.7
O=C(O)C1CCN(C(=O)COc2ccc3c(c2)oc(=O)c2ccccc23)CC1 | 13.5
COC(=O)c1c(NC(=O)c2ccccc2F)sc(C(=O)N2CCOCC2)c1C | -26.4
COc1cccc(CNC(=O)CCl)c1 | 1.75
CCC(C)NC(=O)Nc1ccc(C)cc1C (centres unmarked) | 26
CCN(Cc1nc2cc(Cl)ccc2c(=O)[nH]1)C(=O)C1CC(=O)N(c2cccc3ccccc23)C1 (centres unmarked) | -19.7
COc1ccc(CC(=O)Nc2ccc(-c3ccc4nnc(C)n4n3)cc2)cc1OC | 2.72
Clc1nnc2ccc(-c3ccccc3)nn12 | -0.569
O=C1c2cccc([N+](=O)[O-])c2C(=O)N1c1ccccc1 | -8.51
COCC(C)N=C1NN=C(c2cccs2)C(CC(=O)O)S1 (centres unmarked) | 20
C=CCN(C(=O)C1CSC2(C)CCC(=O)N12)c1nc(-c2ccccc2)cs1 (centres unmarked) | -5.07
CCCC(=O)Nc1ccc2oc(-c3cccnc3)nc2c1 | -3.04
Cc1ccc(Nc2c3c(nc4ccccc24)CCC3)cc1.Cl | -78.8
C=CCc1cc(Cl)ccc1OCCCNC(C)C.O=C(O)C(=O)O | -40.1
CC(C)(C)c1cc(CN(CCO)CCO)cc(C(C)(C)C)c1O | -6.39
COC(=O)c1c(NC(=O)COC(=O)CNC(=O)c2ccco2)sc(C)c1C | 7.16
O=C(COC(=O)C1CC(=O)N(Cc2ccco2)C1)c1ccc(OC(=O)c2ccccc2)cc1 (centres unmarked) | -30.8
O=C(O)c1ccccc1NS(=O)(=O)c1cccc(C(F)(F)F)c1 | -1.4
C/C=C(/C)C(=O)Nc1cccc(C2=NOC3(C2)C[C@H](C(N)=O)N(C(=O)COc2ccc(Cl)cc2)C3)c1 (some centres unmarked) | -12
Cc1nn(Cc2ccc(F)cc2)c2sc(C(=O)Nc3nccs3)cc12 | 20.7
O=C(NC(=S)N1CCCCCC1)c1ccccc1Cl | -10.6
CCOc1ccc(NC(=O)/C=C/c2ccccc2)c([N+](=O)[O-])c1 | -5.94

Compound | hERG current change (%, negative = inhibition) at 10uM [%]
CCCN1C(=O)C(O)(C2COC(C)(C)CC2=O)c2ccccc21 (centres unmarked) | 18.3
CCOC(=O)CC(=O)COc1nc2cc3c(nc2o1)CCCC3 | -11.4
Cc1ccc(NC(=O)CCc2c(C)nn(-c3ccc(N4CCOCC4)nn3)c2C)c(C)c1 | 15.7
N#Cc1ccc(COC(=O)c2cnc(Cl)c(Cl)c2)cc1 | 8.12
Cc1ccc(NC(=O)NCCCN2CCCC2=O)cc1 | 1.5
Cc1ccc(NC(=O)CSCC(=O)Nc2cccc3ncccc23)cc1 | -6.65
C=CCn1c(O)c(C(C)=NCCCN(C)C)c(=O)[nH]c1=O | 5.49
Cc1c(Cl)cccc1-n1nnnc1-c1cccs1 | -7.33
CCOC(=O)C1(Cc2cccc(Cl)c2)CCCN(C(=O)c2ccc(COC)s2)C1 (centres unmarked) | -20
Cc1nccn1Cc1cccc2ccccc12 | -4.88
Cc1ccc(S(=O)(=O)Oc2ccc(/C=N/N=C3/NC(=O)C(CC(=O)O)S3)cc2)cc1[N+](=O)[O-] (centres unmarked) | 24
O=C(O)CSCC(=O)NCc1c(Cl)cccc1Oc1ccccc1 | 14.5
Cc1n[nH]c(=O)nc1N/N=C/c1ccco1 | 11.7
CC1Cc2ccccc2N1S(=O)(=O)c1cccc(C(=O)c2nccn2C)c1 (centres unmarked) | -10.8
COc1ccccc1NC(=O)CSCc1ccc([N+](=O)[O-])cc1 | -27.3
O=C(/C=C/NCC(=O)c1ccccc1)c1ccc(Br)cc1 | 9.65
O=C(NNC(=O)C1CC=CCC1)c1ccccc1Br (centres unmarked) | 6.66
CN(C)C(CNC(=O)c1ccc2[nH]c(=O)c(=O)[nH]c2c1)c1ccco1 (centres unmarked) | -1.94
O=C1c2cccc3cccc(c23)C(=O)N1CCCN(C(=O)c1cccs1)c1cccc(F)c1 | 6.68
COc1cc2ncnc(NCc3cc(F)ccc3F)c2cc1OC | -25.7
O=C(CNC1CCCCCC1)Nc1ccc(N2CCCC2)cc1.O=C(O)C(=O)O | -29
c1ccc(C2Nc3ccccc3-c3nc4ccccc4n32)nc1 (centres unmarked) | -1.28
CC1CCc2c(sc3ncnc(NCCCOC(C)C)c23)C1.Cl (centres unmarked) | -20.4

Compound | hERG current change (%, negative = inhibition) at 10uM [%]
Cc1ccc(NC(=O)CN(C)C(=O)c2cccc(Br)c2)cc1 | 8.34
Cc1ccc(CSc2nnc(-c3cnccn3)n2C)cc1 | 9.53
COc1ccccc1CNC(=O)Nc1cccs1 | -13.6
Cc1cccc(C)c1NC(=O)Cn1nc(-c2ccc(Cl)s2)ccc1=O | 12
Cl.OC(COc1ccc2c(c1)OCO2)CN1CCCC1 (centres unmarked) | 5.48
Cc1ccc2oc(=O)c3cc(C(=O)NCCN4CCN(C)CC4)sc3c2c1 | -18.2
Cc1ccc(Cl)cc1N1CCN(C(=O)Cc2c(C(=O)O)[nH]c3ccc(Cl)cc23)CC1 | 26.1
C=CCOC(=O)C1=C(C)Nc2[nH]c(=O)[nH]c(=O)c2C1c1ccccc1 (centres unmarked) | 21.1
Cc1ccc(-c2cc(N)n3nc(-c4ccc(C)cc4)cc3n2)cc1 | 11.9
COc1ccccc1C(=O)ON=C1c2ccccc2-c2ccccc21 | 15.2
COc1ccc(S(=O)(=O)N(C)CC(=O)NC2CCCCC2)cc1OC | 10.1
C[C@]12CCC(=O)C=C1CC[C@@H]1[C@@H]2[C@@H](O)C[C@@]2(C)[C@H]1CC[C@]2(O)C(=O)COC(=O)CCC(=O)[O-].[Na+] | 7.93
CCc1ccccc1NC(=O)CN(C)C(=O)c1cc(C2CC2)nn1-c1ccccc1 | 8.55
COC(=O)C1=CN(c2ccc(F)c(F)c2)C=C(C(=O)OC)C1c1ccc([N+](=O)[O-])cc1 | -23.5
CCCN(CC(=O)Nc1ccccc1C)C(=O)C1CC(=O)N(Cc2ccccc2)C1 (centres unmarked) | -5.15
CC(C)c1nc2ccccc2n1CCC(=O)O | 5.52
CCOC(=O)C1(CCCc2ccccc2)CCN(Cc2ccn[nH]2)CC1 | -73
O=[N+]([O-])c1cccc(-c2nnn(C34CC5CC(CC(C5)C3)C4)n2)c1 | 5.85
COC(=O)C(NC(C)=O)(Nc1cc(C)ccn1)C(F)(F)F (centres unmarked) | 9.34
CCOC(OCC)c1ccc(/C=C\c2nccc(N)n2)cc1 | -9.34
CCOc1ccc(CN(C)C(=O)CNC(=O)c2ccccc2)cc1 | 5.97
FC(F)(F)c1nc(N2CCN(c3ccccc3)CC2)nc2c1CCCCC2 | 6.74
Cc1ccc2nc(-c3ccc(NS(=O)(=O)c4ccc(F)c(F)c4)cc3)sc2c1 | 23.3

Compound | hERG current change (%, negative = inhibition) at 10uM [%]
CCNc1c(NS(=O)(=O)c2ccc(OC)cc2)c(=O)oc2ccccc12 | -24.3
CC(C)CC(=O)Nc1ccc2nn(-c3ccccc3)nc2c1 | 20.7
CCC(Oc1ccc2c(=O)c(-c3ccccc3OC)coc2c1)C(=O)OCc1ccccc1 (centres unmarked) | 1.83
CC12CCC(C(=O)NCCN3CCCCC3)(CC1=O)C2(C)C (centres unmarked) | -2.12
COc1ccccc1/C=N/NC(=O)c1ccc(Br)cc1 | -19.7
CCOC(=O)c1ccc(NC(=O)NCc2ccc(OC)cc2)cc1 | 8.05
CCOC(=O)C1=C2c3ccc4ccccc4c3CC(C)(C)N2C(=O)C1=O | -2.31
O=C(NCc1ccccc1)C1=C[C@@H](c2ccccc2)C[C@@H](OCc2ccc(CO)cc2)O1 | -14.4
Cc1ccc(C(=O)NC(C)C(c2cccs2)N2CCCC2)s1 (centres unmarked) | 15.8
CCN1CCN(c2cc(=O)n(Cc3ccc(F)cc3)c(=O)[nH]2)CC1 | 17
COc1cc2cc(C(c3nnnn3C3CCCC3)N(C)C3CCCCC3)c(=O)[nH]c2cc1OC (centres unmarked) | -18.5
Cn1cnc([N+](=O)[O-])c1S(=O)(=O)c1cccc(Cl)c1 | -7.42
N#C/C(=C\c1ccc(OCc2ccc(F)cc2)cc1)C(=O)Nc1cccc(C(=O)O)c1 | -9.19
COc1cc(OC)nc(Oc2ccccc2C(=O)Oc2cccc(C)c2)n1 | 7.95
COc1ccc(CC(=O)OCC(=O)Nc2cccnc2Cl)cc1OC | 0.0826
N#Cc1c2n(c3c(=S)nc[nH]c13)CCCCC2 | 10.1
COC(=O)c1cc(-n2cccc2)ccc1N1CCOCC1 | -1.75
Oc1ccc(/C=N/Nc2nccnc2Cl)cc1 | 1.47
CC(C)C(=O)Nc1ccc(C(=O)CSc2nnc(C3CC3)n2C2CC2)cc1 | 1.58
NC(=O)c1nsc(C(=O)N(c2ccc(F)cc2)C(C(=O)NC2CCCC2)c2ccncc2)c1N (centres unmarked) | -0.193
